# Source: paper PMC4336329 (PLoS ONE, 2015)
# In all, about 310,000 compounds went through this assay and about 14,000 (4.5%) showed an effect of 50% or more. The effect is printed as a negative number. This is one part of the list.
# Molecular target: human ether-à-go-go-related gene (hERG) potassium channel (human, UniProt Q12809)
# Test: primary screen, population patch clamp on CHO cells stably expressing hERG
# 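Further: peak tail current of the secondary pulse compared with the same well before compound.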
# human ether-à-go-go-related gene (hERG) potassium channel, sequence (Q12809 whole entry, looked up): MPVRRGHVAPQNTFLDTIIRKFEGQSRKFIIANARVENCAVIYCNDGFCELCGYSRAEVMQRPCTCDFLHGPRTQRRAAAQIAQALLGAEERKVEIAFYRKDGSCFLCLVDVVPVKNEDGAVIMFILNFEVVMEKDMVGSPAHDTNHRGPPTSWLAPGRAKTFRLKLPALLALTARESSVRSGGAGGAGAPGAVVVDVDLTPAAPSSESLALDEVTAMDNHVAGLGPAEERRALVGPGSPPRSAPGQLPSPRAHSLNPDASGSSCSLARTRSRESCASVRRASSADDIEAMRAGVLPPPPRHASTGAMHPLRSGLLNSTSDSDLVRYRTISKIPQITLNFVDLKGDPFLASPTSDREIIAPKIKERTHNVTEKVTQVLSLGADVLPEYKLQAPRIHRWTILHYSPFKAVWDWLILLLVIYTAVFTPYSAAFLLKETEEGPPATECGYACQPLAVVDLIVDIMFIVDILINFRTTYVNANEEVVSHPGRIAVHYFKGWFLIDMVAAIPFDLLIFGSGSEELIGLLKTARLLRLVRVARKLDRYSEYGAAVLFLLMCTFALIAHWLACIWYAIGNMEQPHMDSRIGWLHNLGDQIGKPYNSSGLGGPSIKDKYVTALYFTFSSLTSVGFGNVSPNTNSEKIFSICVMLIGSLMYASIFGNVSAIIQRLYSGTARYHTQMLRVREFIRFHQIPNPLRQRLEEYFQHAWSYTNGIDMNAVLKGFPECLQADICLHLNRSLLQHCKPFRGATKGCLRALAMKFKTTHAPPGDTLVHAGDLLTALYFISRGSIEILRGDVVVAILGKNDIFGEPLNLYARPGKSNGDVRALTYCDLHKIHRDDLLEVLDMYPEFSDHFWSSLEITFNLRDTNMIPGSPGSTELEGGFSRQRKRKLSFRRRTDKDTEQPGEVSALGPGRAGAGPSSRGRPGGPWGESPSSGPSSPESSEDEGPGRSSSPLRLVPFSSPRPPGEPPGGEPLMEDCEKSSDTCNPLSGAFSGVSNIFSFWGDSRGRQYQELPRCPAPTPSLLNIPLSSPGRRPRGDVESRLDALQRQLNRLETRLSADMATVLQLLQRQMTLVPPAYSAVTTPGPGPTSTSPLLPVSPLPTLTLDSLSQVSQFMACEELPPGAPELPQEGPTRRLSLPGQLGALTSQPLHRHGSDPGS
row,SMILES,"hERG current change (%, negative = inhibition) at 10uM [%]"
1,S=C(NCc1cccnc1)Nc1ccc2c(c1)OCO2,-0.573
2,CC(C)[C@H](NC(N)=O)C(=O)Nc1ccc(F)c(Cl)c1,30.6
3,O/N=C(/Cc1ccccn1)c1ccccc1,-0.738
4,Clc1ccc(OCc2nn3c(-c4ccco4)nnc3s2)c(Cl)c1,-21.8
5,O=C(C1COc2ccccc2O1)N1CCCCC1 (stereo not drawn),6.42
6,Cc1ccc(S(=O)(=O)N(C)c2ccc(C(=O)Nc3ccc(C)cn3)cc2)cc1,14.3
7,CC1CN(CCOc2cccc(Oc3ccccc3)c2)CC(C)O1.O=C(O)C(=O)O (stereo not drawn),5.01
8,CCOC(=O)Nc1oc2ccccc2c(=O)c1C,-14
9,CC1CCCC(NC(=O)COC(=O)CCSc2ccccc2)C1C (stereo not drawn),20.6
10,O=C(c1ccccc1)N1CCCC(C(=O)N2CCN(c3ccccc3)CC2)C1 (stereo not drawn),2.88
11,COC(C(=O)Nc1ccnn1C1CCN(C(=O)c2ccc(C)cc2)CC1)c1ccccc1 (stereo not drawn),-27.5
12,CCOC(=O)CC(NC(=O)c1ccco1)c1ccc(C)cc1 (stereo not drawn),5.28
13,CCOCCCNC(=O)C1CCCCN1S(=O)(=O)c1ccc(F)cc1 (stereo not drawn),0.394
14,CC1(C)CC2CC(C)(CN2C(=O)COC(=O)c2ccc(Cl)cc2N)C1 (stereo not drawn),-14.4
15,CC(OC(=O)COc1cccc2c1OC(C)(C)C2)C(=O)Nc1ccc(S(N)(=O)=O)cc1 (stereo not drawn),2.78
16,Cc1[nH]n(-c2ccc([N+](=O)[O-])cc2)c(=O)c1C=NCCN1CCN(C(=O)c2ccc(Br)cc2)CC1,-76.6
17,COC(=O)c1ccccc1NC(=O)COC(=O)c1ccc(C)c(NC(=O)c2ccco2)c1,-25.7
18,COc1cccc2c(=O)n(CC(=O)N3CCN(c4ccccc4)CC3)ccc12,-6.68
19,O=C(NCCS(=O)(=O)N1CCN(c2cccc(Cl)c2)CC1)c1cc(=O)c2ccccc2o1,5.36

row,SMILES,"hERG current change (%, negative = inhibition) at 10uM [%]"
1,COc1ccc2c(c1)C=C(C(=O)NCc1ccc(Cl)cc1)CO2,-67
2,CCc1nn2c(=O)cc(CSCC(=O)Nc3ccccc3Cl)nc2s1,4.09
3,Cc1c(O)ccc(C(=O)CN2CCN(Cc3ccccc3)CC2)c1O,-27
4,CCOC(=O)Nc1ccc(S(=O)(=O)Nc2nccc(C)n2)cc1,6.04
5,CCOC(=O)N1CCC(=NNC(=O)COc2ccc(C#N)cc2)CC1,-3.27
6,COc1ccc2nc(C(C)O)[nH]c2c1 (stereo not drawn),-4.88
7,CCCCn1cnc2c1c(=O)n(CC(=O)c1cc(C)n(C)c1C)c(=O)n2CC(C)C,-17.7
8,O=C(Cn1nnc(-c2ccccc2)n1)Nc1ccc2c(c1)OCO2,17.4
9,CCCC(=O)N1CCC(Cc2ccccc2)CC1,9.83
10,COc1ccc(Br)cc1CNC(=O)Cn1nc(C)n2cccc2c1=O,-10.1
11,Cc1nc(C)c(C(=O)OC(C)C(=O)Nc2ccc(F)cc2)s1 (stereo not drawn),-7.03
12,CCCn1c(-c2ccc[nH]c2=O)nc2cc(C)c(C)cc21,29.3
13,COCCNC(=O)COc1coc(CN2CCN(Cc3ccccc3)CC2)cc1=O,12.3
14,Cc1cccc2nc3ccccc3nc12,3.53
15,O=c1cc(C(F)(F)F)c2cc3c4c(c2o1)CCCN4CCC3,-1.4
16,O=C(Nc1ccccc1)C(=O)c1c[nH]c2ccccc12,13.7
17,COc1cccc(NC(=O)COC(=O)/C=C/c2c(C)nn(-c3ccccc3)c2C)c1,-19
18,CCn1c(SCC(=O)Nc2ccc(OC)c(OC)c2)nc2c(c1=O)SCC2,-9.81
19,COc1ccc(N2C(=O)C3C4C=CC(C4)C3C2=O)c([N+](=O)[O-])c1 (stereo not drawn),-2.92

row,SMILES,"hERG current change (%, negative = inhibition) at 10uM [%]"
1,Cc1ccc(Nc2nnc(SCc3ccccc3)s2)cc1,11.9
2,O=C(CN1CCN(c2ncc(C(F)(F)F)cc2Cl)CC1)N1CCN(c2ncc(C(F)(F)F)cc2Cl)CC1,11.7
3,COc1ccc(N(CC(=O)NC2CCCCC2)C(=O)CNC(=O)c2ccco2)cc1OC,-11.5
4,Cc1nnc(Nc2ccc(Cl)cc2)n(N)c1=O,8.16
5,O=C(O)c1ccccc1C(=O)Nc1ccc(S(=O)(=O)NC2CCCCC2)cc1,10.3
6,O=C(Nc1ccccc1)OC1CN=C(N[N+](=O)[O-])NC1 (stereo not drawn),9.31
7,Oc1ccccc1C=Nc1ccccc1-c1nc2ccccc2[nH]1,5.22
8,COc1cccc(C(=O)Nc2cccc(-c3nnc(-c4ccccc4)o3)c2)c1,-4.18
9,Cc1nc2ccc(NC(=O)Cc3c(F)cccc3Cl)cc2s1,-3.93
10,CC1CCN(C(=O)c2nc[nH]c2C(=O)O[C@H](C)c2ccccc2)CC1,8.79
11,CC(C)CC(c1nnnn1C1CCCC1)N1CCN(c2ccccc2F)CC1.Cl (stereo not drawn),4.76
12,O=C(Cn1ncc2c3ccccc3n(Cc3ccccc3)c2c1=O)NCCCN1CCCC1=O,-29.8
13,COC(=O)c1c(CCl)noc1C(=O)NC(C)C,10
14,CC(C)CC(=O)N1CCN(Cc2cccc(F)c2)CC1,-2.39
15,O=C(NC1(C(F)(F)F)C(=O)Nc2c1c(=O)[nH]c(=O)n2Cc1ccccc1)c1ccc(Cl)cc1 (stereo not drawn),5.24
16,CCCCCCCC(=O)NC(Oc1ccccc1[N+](=O)[O-])C(Cl)(Cl)Cl (stereo not drawn),-17.3
17,CC(C)(C)OC(=O)N1CCC(Cc2cc(-c3ccccc3)no2)(C(=O)O)CC1,12.1
18,CCc1cc2cc3c(cc2nc1SCC(=O)Nc1nccs1)OCO3,-3.49
19,O=C1OC(Cc2ccncc2)C(O)=C1C1=NCCCN1 (stereo not drawn),20.5
